# Viability of KB3-1 and Nalm-6 cells after 48 h of drug alone (CellTiter-Glo), 11 doses over about 4.5 log units. % of DMSO wells, lower = more cell loss; AC50 from the fitted curve, lower = more potent. No active / inactive call. Nalm-6 was screened in two runs. AC50 is listed only for well-fitted inhibitory curves. KB3-1 is a HeLa-derived carcinoma line, Nalm-6 a B-cell precursor leukaemia line.
# What was measured:
# KB3-1 = assay: viability (% of DMSO control); higher = more viable cells
# Method: (§1)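 Eleven-dose screen of the NCATS MIPE 3 library on cells without co-treatment; CellTiter-Glo after 48 h, as % of DMSO wells.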
# Nalm-6 = assay: as above
# Method: as §1
Compound,viability (KB3-1; 0.00078 µM) [%],viability (KB3-1; 0.00234 µM) [%],viability (KB3-1; 0.00702 µM) [%],viability (KB3-1; 0.0211 µM) [%],viability (KB3-1; 0.0632 µM) [%],viability (KB3-1; 0.19 µM) [%],viability (KB3-1; 0.569 µM) [%],viability (KB3-1; 1.71 µM) [%],viability (KB3-1; 5.12 µM) [%],viability (KB3-1; 15.4 µM) [%],viability (KB3-1; 46.1 µM) [%],"viability (Nalm-6; run: 1, 0.00078 µM) [%]","viability (Nalm-6; run: 1, 0.00234 µM) [%]","viability (Nalm-6; run: 1, 0.00702 µM) [%]","viability (Nalm-6; run: 1, 0.0211 µM) [%]","viability (Nalm-6; run: 1, 0.0632 µM) [%]","viability (Nalm-6; run: 1, 0.19 µM) [%]","viability (Nalm-6; run: 1, 0.569 µM) [%]","viability (Nalm-6; run: 1, 1.71 µM) [%]","viability (Nalm-6; run: 1, 5.12 µM) [%]","viability (Nalm-6; run: 1, 15.4 µM) [%]","viability (Nalm-6; run: 1, 46.1 µM) [%]","viability (Nalm-6; run: 2, 0.00078 µM) [%]","viability (Nalm-6; run: 2, 0.00234 µM) [%]","viability (Nalm-6; run: 2, 0.00702 µM) [%]","viability (Nalm-6; run: 2, 0.0211 µM) [%]","viability (Nalm-6; run: 2, 0.0632 µM) [%]","viability (Nalm-6; run: 2, 0.19 µM) [%]","viability (Nalm-6; run: 2, 0.569 µM) [%]","viability (Nalm-6; run: 2, 1.71 µM) [%]","viability (Nalm-6; run: 2, 5.12 µM) [%]","viability (Nalm-6; run: 2, 15.4 µM) [%]","viability (Nalm-6; run: 2, 46.1 µM) [%]"
NC(=O)c1ccc(I)c([N+](=O)[O-])c1 [Iniparib],107,104,101,106,101,108,106,104,106,99.3,98.5,93.6,84,96.1,102,111,110,115,108,118,113,48.2,111,112,110,112,108,113,113,108,108,101,5.01
Clc1ccc(-c2nc3sccn3c2/C=N/OCc2ccc(Cl)c(Cl)c2)cc1 [CITCO],99.5,97.3,104,98.3,103,100,93.3,103,88.3,91.9,97.3,-1.26,-0.966,-0.373,2.83,10.4,38.7,65.5,66.3,80.1,84.2,47.2,107,116,113,112,110,108,105,107,99.7,105,71.4
O=C(O)c1nn(Cc2ccc(Cl)cc2Cl)c2ccccc12 [Lonidamine],102,104,103,101,98.6,104,101,98,99.5,99.5,91.8,114,110,120,113,107,113,103,107,110,90.5,86.4,107,104,103,106,103,103,102,103,101,103,96.7
COC1=CC(=C2C(=O)N(COC/3=C/C(=O)N4\C=C/C=C(OCCN5CCCCC5)\C4=N3)S(=O)(=O)C2=C1)C(C)C,95.5,97.1,99.9,103,107,103,103,103,102,105,3.12,107,109,110,119,122,115,121,109,106,108,0.643,105,109,100,110,105,107,105,110,103,101,0.735
Cn1cc(-c2ccc3nnc(Sc4ccc5ncccc5c4)n3n2)cn1 [SGX-523],96.3,103,96.2,102,99.4,97.9,96.8,102,101,104,101,93.7,98.7,99.6,102,105,108,106,113,112,110,98.1,97.7,97.7,98.9,100,103,101,98.6,105,108,110,108
Cc1nnc(C(C)C)n1C1CC2CCC(C1)N2CC[C@H](NC(=O)C1CCC(F)(F)CC1)c1ccccc1 (some centres undefined) [Maraviroc],103,94.9,100,99.5,97.1,105,104,105,103,104,103,94.9,99.5,110,111,106,116,120,123,126,126,120,99.5,99,107,109,105,101,108,104,108,83.1,96.6
CNCC(O)C(O)C(O)C(O)CO.O=C(O)c1ccc(-c2cc3cccnc3c(-c3ccc4nonc4c3)n2)cc1 [NVP-ABE171],102,106,104,110,109,103,102,107,106,101,102,99.8,90.9,103,115,115,112,120,115,120,111,89.8,107,108,104,108,106,105,102,111,102,103,101
CC(C)[C@H](CO)Nc1nc(Nc2ccc(C(=O)O)c(Cl)c2)c2ncn(C(C)C)c2n1 [Purvalanol B],100,98.8,93,100,101,99.1,100,101,96.2,105,103,116,112,115,122,115,122,127,122,121,117,121,111,112,117,117,114,116,113,112,108,113,110
